Results as given in US20220402989A1 (Regeneron, published 2022).

T1: human IL2Rα expressed with a C-terminal hexahistidine tag (human, UniProt P01589 22-213)
T1 construct: Recombinant monomeric protein in solution; also called hIL2Rα.6H; R&D Catalog #10305-RL-050; not shown: C-terminal hexahistidine tag
T1 sequence (looked up): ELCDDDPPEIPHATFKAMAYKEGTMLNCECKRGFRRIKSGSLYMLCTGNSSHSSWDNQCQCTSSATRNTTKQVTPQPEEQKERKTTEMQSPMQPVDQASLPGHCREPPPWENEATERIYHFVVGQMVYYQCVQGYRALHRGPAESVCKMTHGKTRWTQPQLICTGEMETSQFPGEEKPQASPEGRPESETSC

T2: human IL2 receptor beta expressed with a C-terminal myc-myc-hexahistidine tag (human, UniProt P14784 27-240)
T2 construct: Recombinant monomeric protein in solution; also called hIL2Rβ.mmH; hIL2RR.mmH; not shown: C-terminal myc-myc-hexahistidine tag
T2 sequence (looked up): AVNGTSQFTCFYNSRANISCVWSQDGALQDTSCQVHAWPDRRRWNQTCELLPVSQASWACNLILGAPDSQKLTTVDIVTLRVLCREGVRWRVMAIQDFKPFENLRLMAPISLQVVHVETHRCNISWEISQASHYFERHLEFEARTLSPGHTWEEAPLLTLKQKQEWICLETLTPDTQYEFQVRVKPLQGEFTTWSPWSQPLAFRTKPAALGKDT

T3: human IL2 receptor gamma expressed with a C-terminal myc-myc-hexahistidine tag (human, UniProt P31785 23-262)
T3 construct: Recombinant monomeric protein in solution; also called hIL2Rγ.mmH; REGN1183; not shown: C-terminal myc-myc-hexahistidine tag
T3 sequence (looked up): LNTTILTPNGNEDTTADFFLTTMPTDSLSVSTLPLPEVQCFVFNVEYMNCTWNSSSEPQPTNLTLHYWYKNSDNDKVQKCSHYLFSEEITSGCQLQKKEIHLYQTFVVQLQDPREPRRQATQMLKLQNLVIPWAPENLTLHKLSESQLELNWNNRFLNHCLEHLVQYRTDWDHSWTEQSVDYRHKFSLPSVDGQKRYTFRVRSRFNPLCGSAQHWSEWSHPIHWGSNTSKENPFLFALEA


Assays:
[1] = target: T4, human PD-1 expressed with a C-terminal myc-myc-hexahistidine tag (human); assay: SPR (Biacore), antibody captured via anti-human Fc, hPD-1.mmH in solution, 25 C
T4 construct: also called hPD-1.mmH; hPD-1.mmh
Description: The CM5 Biacore sensor surface was derivatized by amine coupling with a monoclonal mouse anti-human Fc antibody (GE, #BR-1008-39). All Biacore binding studies were performed in a buffer composed of 0.01M HEPES pH 7.4, 0.15M NaCl, 3 mM EDTA, 0.05% v/v Surfactant P20 (HBS-EP running buffer). […] Antibody-reagent association was monitored for 4 or 5 minutes, while dissociation in HBS-EP running buffer was monitored for 10 minutes. […] All binding kinetics experiments were performed at 25° C.
Kinetic association (kₐ) and dissociation (kd) rate constants were determined by fitting the real-time sensorgrams to a 1:1 binding model using Scrubber 2.0c curve fitting software. Binding dissociation equilibrium constants (KD) and dissociative half-lives (t½) were calculated from the kinetic rate constants as: […]

[2] = target: T1, human IL2Rα expressed with a C-terminal …; assay: SPR (Biacore S-200), construct captured via anti-human Fab, 1 µM hIL2Rα.6H injected, 25 C
[3] = target: T2, human IL2 receptor beta expressed with …; assay: SPR (Biacore S-200), construct captured via anti-human Fab, 1 µM hIL2Rβ.mmH injected, 25 C
[4] = target: T3, human IL2 receptor gamma expressed with …; assay: SPR (Biacore S-200), sequential: 1 µM hIL2Rβ.mmH, then mixture of hIL2Rβ.mmH and 1 µM hIL2Rγ.mmH, 25 C
[5] = target: T1, human IL2Rα expressed with a C-terminal …; assay: SPR (Biacore S-200), construct captured via anti-human Fab, 1 µM hIL2Rα.6H injected, 25 C; normalized to REGN1945 and REGN8512
[6] = target: T2, human IL2 receptor beta expressed with …; assay: SPR (Biacore S-200), construct captured via anti-human Fab, 1 µM hIL2Rβ.mmH injected, 25 C; normalized to REGN1945 and REGN8512
[7] = target: T5, human PD1 expressed endogenously on YT/STAT5 luc/Cl4 cells (human, UniProt Q15116 25-288); assay: flow cytometry (FACS) titration on YT/STAT5 luc/CL4 cells with endogenous hPD1, APC anti-human Fc-gamma secondary, MFI_APC
T5 construct: whole, on cells; also called hPD1; PD1+ cells
Description: To compare hPD1 binding of αhPD1-IL2Rα-IL2 proteins to their respective parental anti-hPD1 antibodies, YT/STAT5 luc/Cl4 cells expressing endogenous levels of hPD1 were washed twice with FACS wash (PBS+2% FBS) and resuspended at 1×10\hat{ }6 cells/ml in FACS wash. Cells (100 μl/well) were then plated in 96 well U bottom plates. Cells were spun down (1200 RPM, 5 minutes) and resuspended in 100 μl/well of the various antibody dilutions listed in mAb clone IDs. The antibody titrations were prepared starting at 20 μg/ml with a 6-fold dilution using FACS wash. Cells were incubated with the antibodies for 30 minutes at 4° C. The unbound antibodies were then removed by washing the cells twice using FACS wash. The cells were then resuspended in 100 μl/well of 1:200 dilution of APC-anti-human Fcγ secondary antibody. The cells were incubated for 30 minutes at 4° C. The unbound antibodies were then removed by washing the cells twice using FACS wash. The cells were then resuspended in 160 μl/well of FACS wash and run to test binding using BD FACSCanto™ Flow Cytometer.

[8] = target: T3, human IL2 receptor gamma expressed with …; assay: SPR (Biacore S-200), sequential: 1 µM hIL2Rβ.mmH, then mixture of hIL2Rβ.mmH and 1 µM hIL2Rγ.mmH, 25 C; normalized to REGN1945 and REGN8512

T5 sequence (Q15116 25-288): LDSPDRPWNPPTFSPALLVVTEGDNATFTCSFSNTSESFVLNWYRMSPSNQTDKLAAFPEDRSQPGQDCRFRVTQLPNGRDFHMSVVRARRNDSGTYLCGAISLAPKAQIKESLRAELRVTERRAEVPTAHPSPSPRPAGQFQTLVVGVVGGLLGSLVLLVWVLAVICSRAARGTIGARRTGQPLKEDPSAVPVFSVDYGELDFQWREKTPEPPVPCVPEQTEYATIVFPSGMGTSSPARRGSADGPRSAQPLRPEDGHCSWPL

| Binder | 90 nM or 100 nM hPD-1.mmH Bind (RU) [1] [RU] | Kd [1] [nM] | koff [1] [s⁻¹] | kon [1] [M⁻¹ s⁻¹] | t1/2 [1] [min] | 1 µM hIL2Rα.6H Bind (RU) [2] [RU] | 1 µM hIL2Rβ.mmH Bind (RU) [3] [RU] | 1 µM hIL2Rγ.mmH Bind (RU) [4] [RU] | % Normalized Activity [5] [%] | % Normalized Activity [6] [%] | EC50 [7] [nM] | % Normalized Activity [8] [%] |
| --- | --- | --- | --- | --- | --- | --- | --- | --- | --- | --- | --- | --- |
| REGN10486 (other, also called anti-PD1-IL2Rα-IL2; anti-hPD1-IL2Rα-IL2) heavy: EVQLLESGGVLVQPGGSLRLSCAASGFTFSNFGMTWVRQAPGKGLEWVSGISGGGRDTYFADSVKGRFTISRDNSKNTLYLQMNSLKGEDTAVYYCVKWGNIYFDYWGQGTLVTVSSASTKGPSVFPLAPCSRSTSESTAALGCLVKDYFPEPVTVSWNSGALTSGVHTFPAVLQSSGLYSLSSVVTVPSSSLGTKTYTCNVDHKPSNTKVDKRVESKYGPPCPPCPAPPVAGPSVFLFPPKPKDTLMISRTPEVTCVVVDVSQEDPEVQFNWYVDGVEVHNAKTKPREEQFNSTYRVVSVLTVLHQDWLNGKEYKCKVSNKGLPSSIEKTISKAKGQPREPQVYTLPPSQEEMTKNQVSLTCLVKGFYPSDIAVEWESNGQPENNYKTTPPVLDSDGSFFLYSRLTVDKSRWQEGNVFSCSVMHEALHNHYTQKSLSLSLGKGGGGSGGGGSGGGGSELCDDDPPEIPHATFKAMAYKEGTMLNCECKRGFRRIKSGSLYMLCTGNSSHSSWDNQCQCTSSATRNTTKQVTPQPEEQKERKTTEMQSPMQPVDQASLPGHCREPPPWENEATERIYHFVVGQMVYYQCVQGYRALHRGPAESVCKMTHGKTRWTQPQLICTGGGGGSGGGGSGGGGSGGGGSGGGGS[about 150 residues skipped] light: DIQMTQSPSSLSASVGDSITITCRASLSINTFLNWYQQKPGKAPNLLIYAASSLHGGVPSRFSGSGSGTDFTLTIRTLQPEDFATYYCQQSSNTPFTFGPGTVVDFRRTVAAPSVFIFPPSDEQLKSGTASVVCLLNNFYPREAKVQWKVDNALQSGNSQESVTEQDSKDSTYSLSSTLTLSKADYEKHKVYACEVTHQGLSSPVTKSFNRGEC | 46.9 | 2.83 | 0.000302 | 107000 | 38.3 | 0.9 | 13.3 | 0.8 | 1.3 | 46.4 | 1.55 | 5.5 |
| REGN10597 (other, also called anti-PD1-IL2Rα-IL2; aPD1(9048)-IL2Ra-IL2) heavy: QVQLVQSGAEVKRPGSSVKVSCKVSGVTFRNFAIIWVRQAPGQGLEWMGGIIPFFSAANYAQSFQGRVTITPDESTSTAFMELASLRSEDTAVYYCAREGERGHTYGFDYWGQGTLVTVSSASTKGPSVFPLAPCSRSTSESTAALGCLVKDYFPEPVTVSWNSGALTSGVHTFPAVLQSSGLYSLSSVVTVPSSSLGTKTYTCNVDHKPSNTKVDKRVESKYGPPCPPCPAPPVAGPSVFLFPPKPKDTLMISRTPEVTCVVVDVSQEDPEVQFNWYVDGVEVHNAKTKPREEQFNSTYRVVSVLTVLHQDWLNGKEYKCKVSNKGLPSSIEKTISKAKGQPREPQVYTLPPSQEEMTKNQVSLTCLVKGFYPSDIAVEWESNGQPENNYKTTPPVLDSDGSFFLYSRLTVDKSRWQEGNVFSCSVMHEALHNHYTQKSLSLSLGKGGGGSGGGGSGGGGSELCDDDPPEIPHATFKAMAYKEGTMLNCECKRGFRRIKSGSLYMLCTGNSSHSSWDNQCQCTSSATRNTTKQVTPQPEEQKERKTTEMQSPMQPVDQASLPGHCREPPPWENEATERIYHFVVGQMVYYQCVQGYRALHRGPAESVCKMTHGKTRWTQPQLICTGGGGGSGGGGSGGGGSGGGGSGGGGS[about 150 residues skipped] light: [about 100 residues skipped][about 120 residues skipped] | 41.8 | 3.92 | 0.000582 | 148000 | 19.9 | 0.6 | 16.8 | 1.4 | 1.2 | 71.9 | 6.31 | 9.3 |
| REGN10595 (other, also called anti-PD1-IL2Rα-IL2; anti-hPD1-IL2Rα-IL2) heavy: QVQLVQSGTEVRKPGSSVKVSCKTSGVTFNNYAITWVRQAPGQGLEWMGGIIPVFSPPNYAQKFQGRVTITADESTNTAYMELNSLRSDDTAIYFCAREGERGYTYGYDYWGQGTLVTVSSASTKGPSVFPLAPCSRSTSESTAALGCLVKDYFPEPVTVSWNSGALTSGVHTFPAVLQSSGLYSLSSVVTVPSSSLGTKTYTCNVDHKPSNTKVDKRVESKYGPPCPPCPAPPVAGPSVFLFPPKPKDTLMISRTPEVTCVVVDVSQEDPEVQFNWYVDGVEVHNAKTKPREEQFNSTYRVVSVLTVLHQDWLNGKEYKCKVSNKGLPSSIEKTISKAKGQPREPQVYTLPPSQEEMTKNQVSLTCLVKGFYPSDIAVEWESNGQPENNYKTTPPVLDSDGSFFLYSRLTVDKSRWQEGNVFSCSVMHEALHNHYTQKSLSLSLGKGGGGSGGGGSGGGGSELCDDDPPEIPHATFKAMAYKEGTMLNCECKRGFRRIKSGSLYMLCTGNSSHSSWDNQCQCTSSATRNTTKQVTPQPEEQKERKTTEMQSPMQPVDQASLPGHCREPPPWENEATERIYHFVVGQMVYYQCVQGYRALHRGPAESVCKMTHGKTRWTQPQLICTGGGGGSGGGGSGGGGSGGGGSGGGGS[about 150 residues skipped] light: [about 100 residues skipped][about 120 residues skipped] | 44.7 | 4.59 | 0.000476 | 104000 | 24.3 | 2.1 | 15.6 | 2.2 | 6.6 | 61.6 | 10.6 | 12.6 |
